{"source": "PubChem BioAssay AID504845", "about": "(National Center for Advancing Translational Sciences (NCATS), 2011)", "note": "Out of some 390,000 compounds screened, about 150 (0.038%) were called active. The inconclusive results got no clear call from the source; some entries with a clear call stand among them for comparison. The call rests on the fitted dose curve; in most records, active means well fitted inhibition curve with a large enough effect; inconclusive means small, poorly fitted or top-dose-only effect; inactive means no such curve, though single readings can be large or run the other way. Potencies beside an inconclusive call are fits to weak or partial responses and may not hold up. Potency means the concentration at half of the fitted maximal effect; tags describe the fitted curve by direction and shape.", "data": [{"molecular_target": "Regulator of G-protein signaling 4 (Homo sapiens) (UniProt P49798)", "sequence (P49798 whole entry, looked up)": "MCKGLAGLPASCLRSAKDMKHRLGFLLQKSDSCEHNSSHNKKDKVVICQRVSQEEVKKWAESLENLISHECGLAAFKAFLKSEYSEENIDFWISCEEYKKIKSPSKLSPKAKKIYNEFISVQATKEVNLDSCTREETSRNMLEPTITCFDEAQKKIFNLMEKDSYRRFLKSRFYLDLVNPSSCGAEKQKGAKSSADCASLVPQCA", "assay": "Inhibitors of Regulator of G Protein Signaling (RGS) 4: qHTS; further: nearly all actives have a fitted effect of over 75% in size", "settings": "Transcreener GDP fluorescence polarization, RGS4-accelerated GTP hydrolysis; series mostly up to 114 µM", "method_in_brief": "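MLSMR compounds (23 nl, pin-transferred) preincubated 10 min at room temperature with a 500nM (2x) first reagent, then RGS4 at 900nM (2x) plus Transcreener GDP mix added; fluorescence polarization (620/688 nm) read before and after 90 min at 30 °C.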", "values": [{"smiles": "CN1CCc2nc(SCC(=O)Nc3cccc(F)c3)c(C#N)c(-c3cccs3)c2C1", "Potency": "inconclusive: 39.8 µM [inhibitor, partial curve, poor fit]"}, {"smiles": "Cc1ccc(NC(=O)c2ccc(Cl)c(N3C(=O)C=CC3=O)c2)cc1", "Potency": "inconclusive: 31.6 µM [inhibitor, partial curve, poor fit]"}, {"smiles": "Fc1ccccc1/C=C1\\CCCC2=C1Nc1nnnn1C2c1ccccc1F", "note": "(centres undefined)", "Potency": "inconclusive: 31.6 µM [inhibitor, partial curve, poor fit]"}, {"smiles": "Cc1c([N+](=O)[O-])c([N+](=O)[O-])nn1CC(=O)NCc1cccnc1", "Potency": "inconclusive: 50.1 µM [inhibitor, partial curve, poor fit]"}, {"smiles": "COCCN(C(=O)COC(=O)/C=C/c1ccc(C)o1)c1c(N)n(Cc2ccccc2)c(=O)[nH]c1=O", "Potency": "inconclusive: 79.4 µM [inhibitor, partial curve, poor fit]"}, {"smiles": "COc1cccc(NC(=O)Cn2c(=O)c3cccn3c3ccc(F)cc32)c1", "Potency": "inactive"}, {"smiles": "Cc1cc(Cl)ccc1OCC(=O)N/N=C/c1ccncc1", "Potency": "inconclusive: 79.4 µM [inhibitor, single point]"}, {"smiles": "COc1ccccc1CN(C)C(=O)c1cc(-c2cc(OC)c(OC)c(OC)c2)nc2ccccc12", "Potency": "inactive"}, {"smiles": "CCOC(=O)c1c(-c2ccc(C)o2)csc1NC(=S)NC(=O)c1ccccc1Br", "Potency": "inconclusive: 50.1 µM [inhibitor, partial curve, poor fit]"}, {"smiles": "CCN(CC)c1ccc(NC(=S)Nc2ccc(F)cc2)cc1", "Potency": "inconclusive: 28.2 µM [inhibitor, full curve, poor fit]"}, {"smiles": "CCOc1cc(/C=C2\\C(=O)N(c3ccc(C(N)=O)cc3)N=C2C)ccc1OC(=O)c1cccs1", "Potency": "inconclusive: 50.1 µM [inhibitor, partial curve, poor fit]"}, {"smiles": "O=C(NCc1ccncc1)C(=O)N/N=C/c1ccc(OCc2ccccc2)cc1", "Potency": "inconclusive: 31.6 µM [inhibitor, full curve, poor fit]"}, {"smiles": "COc1ccccc1/C=C/C=N/n1c(-c2ccc(Cl)cc2)n[nH]c1=S", "Potency": "inconclusive: 50.1 µM [inhibitor, partial curve, poor fit]"}, {"smiles": "CCOC(=O)c1ccc(NC(=O)CSc2nnc(-c3cccs3)n2C)cc1", "Potency": "inactive"}, {"smiles": "Cc1cc(C)nc(N2CCCC(C(=O)Nc3ccc4c(c3)OCO4)C2)n1", "note": "(centres undefined)", "Potency": "inactive"}, {"smiles": "Cc1ccc(C(=O)N2CCN(c3ccccc3O)CC2)cc1S(=O)(=O)N1CCCCC1", "Potency": "inconclusive: 70.8 µM [inhibitor, partial curve, poor fit]"}, {"smiles": "COc1cccc(Nc2nc(-c3ccc(O)cc3)cs2)c1", "Potency": "inconclusive: 17.8 µM [inhibitor, full curve, poor fit]"}, {"smiles": "CCCCN=C1NN=C(c2ccc(C)c(C)c2)CS1", "Potency": "inconclusive: 28.2 µM [inhibitor, full curve, poor fit]"}, {"smiles": "COc1cc(/C=C/[N+](=O)[O-])ccc1OC(=O)c1cc2ccccc2oc1=O", "Potency": "inconclusive: 56.2 µM [inhibitor, partial curve, poor fit]"}, {"smiles": "O=C(c1ccco1)N1CCN(C(=O)c2cc3c(s2)-c2ccccc2OC3)CC1", "Potency": "inconclusive: 56.2 µM [inhibitor, partial curve, poor fit]"}, {"smiles": "C/C(=N\\NC(=O)c1cccc(N/N=C(\\C)c2ccccc2)c1)c1ccccc1", "Potency": "inconclusive: 56.2 µM [inhibitor, partial curve, poor fit]"}, {"smiles": "O=C(NCC(c1ccco1)N1CCCCC1)c1cc2c(s1)CCCC2", "note": "(centres undefined)", "Potency": "inactive"}, {"smiles": "COC(=O)c1ccccc1NC(=O)C1CCCN(C(=O)c2cnn(-c3ccc(F)cc3)c2-n2cccc2)C1", "note": "(centres undefined)", "Potency": "inactive"}, {"smiles": "O=C(Nc1nccs1)C1CCCN(S(=O)(=O)c2cccnc2)C1", "note": "(centres undefined)", "Potency": "inconclusive: 100 µM [inhibitor, single point]"}, {"smiles": "CCN1C(=O)N/C(=C/c2ccc(C)o2)C1=O", "Potency": "inconclusive: 35.5 µM [inhibitor, full curve, poor fit]"}, {"smiles": "Cc1ccccc1CNC(=O)c1cc2ccccc2o1", "Potency": "inconclusive: 70.8 µM [inhibitor, partial curve, poor fit]"}, {"smiles": "C=CCC(Nc1ccccc1)C12C=CC(O1)C(C(=O)OC)=C2C(=O)OC", "note": "(centres undefined)", "Potency": "inconclusive: 44.7 µM [inhibitor, partial curve, poor fit]"}, {"smiles": "CN(C)c1ccc2c(O)cc(=O)n(C)c2c1", "Potency": "inconclusive: 44.7 µM [inhibitor, partial curve, poor fit]"}, {"smiles": "CCCCC/C=C\\C/C=C\\C/C=C\\C/C=C\\CCCCCC(=O)O", "Potency": "inactive"}, {"smiles": "CCOc1ccc(C(C)NC(=O)c2ccccc2F)cc1", "note": "(centres undefined)", "Potency": "inactive"}, {"smiles": "O=C1CC(=O)N(Cc2cccs2)C(=O)N1", "Potency": "inconclusive: 89.1 µM [inhibitor, partial curve, poor fit]"}, {"smiles": "O=C1Nc2ccc(Br)cc2/C1=C/C(=O)c1ccc2c(c1)OCO2", "Potency": "inconclusive: 17.8 µM [inhibitor, full curve, poor fit]"}, {"smiles": "CCc1ccccc1NC(=O)CC(O)(C(=O)OC)C(F)(F)F", "note": "(centres undefined)", "Potency": "inactive"}, {"smiles": "COC(=O)c1cc(C(=O)c2cc(Cl)ccc2O)coc1=N", "Potency": "inactive"}, {"smiles": "CC1=Nc2ccc(C)cc2/C1=C/c1c(N)n2c(S(=O)(=O)C(C)C)nsc2nc1=O", "Potency": "inconclusive: 100 µM [inhibitor, single point]"}, {"smiles": "Cc1ccc2[nH]c3c(c2c1)CN(C)CC3", "Potency": "inactive"}, {"smiles": "CCc1ccc(C(=O)NC(=S)Nc2ccc(N3CCOCC3)cc2)cc1", "Potency": "inactive"}, {"smiles": "CCOC(=O)c1ccc(-n2c(=S)sc3c(=O)[nH]c(C)nc32)cc1", "Potency": "inconclusive: 44.7 µM [inhibitor, partial curve, poor fit]"}, {"smiles": "Cc1cc(C)n(C(C[N+](=O)[O-])c2ccc(Cl)cc2)n1", "note": "(centres undefined)", "Potency": "inactive"}, {"smiles": "c1ccc(SCCc2ccncc2)cc1", "Potency": "inconclusive: 79.4 µM [inhibitor, single point]"}, {"smiles": "COc1cc2c(cc1OC)CN(C(=O)c1cccc(S(=O)(=O)N3CCc4ccccc43)c1)CC2", "Potency": "inconclusive: 89.1 µM [inhibitor, single point]"}, {"smiles": "Nc1c(N(CCC2=CCCCC2)C(=O)COc2ccc(F)cc2Cl)c(=O)[nH]c(=O)n1Cc1ccccc1", "Potency": "inactive"}, {"smiles": "CCCn1c(SCCc2ccccc2)nc2c1c(=O)[nH]c(=O)n2C", "Potency": "inconclusive: 89.1 µM [inhibitor, single point]"}, {"smiles": "Cc1ccc(C(c2cc(Cl)c3cccnc3c2O)N2CCN(C)CC2)cc1", "note": "(centres undefined)", "Potency": "inconclusive: 28.2 µM [inhibitor, full curve, poor fit]"}, {"smiles": "Oc1cccc(CN2CCOCC2)c1O", "Potency": "inconclusive: 56.2 µM [inhibitor, partial curve, poor fit]"}, {"smiles": "O=C(NCCc1ccccc1)c1nc2ncccn2n1", "Potency": "inactive"}, {"smiles": "O=C(/C=C/c1ccccc1O)c1ccc(Cl)cc1", "Potency": "inconclusive: 50.1 µM [inhibitor, partial curve, poor fit]"}, {"smiles": "O=C(O)/C=C/C(=O)Nc1ccc(C2(c3ccc(NC(=O)/C=C/C(=O)O)cc3)c3ccccc3-c3ccccc32)cc1", "Potency": "inconclusive: 70.8 µM [inhibitor, single point]"}, {"smiles": "Nc1c(Cl)cc(-c2[nH]c3cc(C(=O)NCCO)ccc3c(=O)c2O)cc1Cl", "Potency": "inactive"}, {"smiles": "COc1cc(=O)[nH]c(SCC(=O)Nc2nc3c(s2)CCCC3)n1", "Potency": "inconclusive: 28.2 µM [inhibitor, full curve, poor fit]"}, {"smiles": "CC1Sc2ccc(C(=O)Nc3ncccc3O)cc2NC1=O", "note": "(centres undefined)", "Potency": "inconclusive: 89.1 µM [inhibitor, single point]"}, {"smiles": "CC(C)c1ccc(O)c(NC(=S)NC(=O)c2ccc3c(c2)OCO3)c1", "Potency": "inconclusive: 17.8 µM [inhibitor, full curve, poor fit]"}, {"smiles": "CCCC(=O)Nc1nnc(-c2ccc3c(c2)OCCO3)o1", "Potency": "inconclusive: 39.8 µM [inhibitor, full curve, poor fit]"}, {"smiles": "O=C(CSc1nnc(CNc2ccccc2)o1)N1CCCc2ccccc21", "Potency": "inactive"}, {"smiles": "COc1ccccc1CN(Cc1cc2cc3c(cc2[nH]c1=O)OCCO3)Cc1nnnn1Cc1ccco1", "Potency": "inconclusive: 50.1 µM [inhibitor, partial curve, poor fit]"}, {"smiles": "COCCCNCCOCCOc1ccc(C)cc1[N+](=O)[O-]", "Potency": "inactive"}, {"smiles": "COC(=O)[C@H](CCSC)NC(=O)Cn1cnc2c(SC)nc(N)nc21", "Potency": "inconclusive: 70.8 µM [inhibitor, partial curve, poor fit]"}, {"smiles": "O=C1/C(=C\\c2ccc(O)cc2)SC(=S)N1Cc1ccccc1", "Potency": "inactive"}, {"smiles": "Cc1ccc(-c2nc3ncccc3o2)cc1NC(=S)NC(=O)c1ccco1", "Potency": "inconclusive: 31.6 µM [inhibitor, full curve, poor fit]"}, {"smiles": "O=C1C2CCCCN2C(=O)N1CCN1CCN(c2ccc(F)cc2)CC1", "note": "(centres undefined)", "Potency": "inactive"}, {"smiles": "O=C(NCc1cccs1)C1CC(c2ccccc2O)=NO1", "note": "(centres undefined)", "Potency": "inactive"}, {"smiles": "NNCCc1ccccc1", "Potency": "inconclusive: 23.8 µM [inhibitor, single point]"}, {"smiles": "Cc1ccc(-n2c(C)cc(C(=O)CN3C(=O)C(=O)N(C4CCCC4)C3=O)c2C)cc1", "Potency": "inconclusive: 79.4 µM [inhibitor, partial curve, poor fit]"}, {"smiles": "O=C(CC12CC3CC(CC(C3)C1)C2)N/N=C/c1ccncc1", "Potency": "inconclusive: 56.2 µM [inhibitor, partial curve, poor fit]"}, {"smiles": "COc1cc(Cl)c(S(=O)(=O)N2CCN(c3c(C)cccc3C)CC2)cc1Cl", "Potency": "inactive"}, {"smiles": "COc1ccc(/C=N/n2cnnc2SCc2ccccc2)cc1", "Potency": "inactive"}, {"smiles": "CC(=O)Nc1cccc(C(=O)/C=C/c2ccc(Br)cc2)c1", "Potency": "inactive"}, {"smiles": "NC(=O)c1ccc(Cc2ncc(C(F)(F)F)cc2Cl)s1", "Potency": "inactive"}, {"smiles": "Cc1cccc(OCc2occc2C(=O)Nc2cccc(-n3cnnn3)c2)c1", "Potency": "inactive"}]}]}
